SMILES strings stand for the structures. Hit rate of the full screen: of about 110,000 compounds, about 230 (0.21%) showed an effect of 50% or more. This is one part of the list.
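Also: 30 min substrate incubation versus DMSO and 10 µM JCP410 controls.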

The target in this experiment is DPAP1 (Plasmodium falciparum, UniProt Q8IIJ9). Description: primary screen, percent inhibition; read by cleavage of a fluorogenic dipeptide substrate; higher = more effect of the substance. On the set-up: species or system P. falciparum D10 trophozoite lysates; single well.
DPAP1, sequence (Q8IIJ9 whole entry, looked up): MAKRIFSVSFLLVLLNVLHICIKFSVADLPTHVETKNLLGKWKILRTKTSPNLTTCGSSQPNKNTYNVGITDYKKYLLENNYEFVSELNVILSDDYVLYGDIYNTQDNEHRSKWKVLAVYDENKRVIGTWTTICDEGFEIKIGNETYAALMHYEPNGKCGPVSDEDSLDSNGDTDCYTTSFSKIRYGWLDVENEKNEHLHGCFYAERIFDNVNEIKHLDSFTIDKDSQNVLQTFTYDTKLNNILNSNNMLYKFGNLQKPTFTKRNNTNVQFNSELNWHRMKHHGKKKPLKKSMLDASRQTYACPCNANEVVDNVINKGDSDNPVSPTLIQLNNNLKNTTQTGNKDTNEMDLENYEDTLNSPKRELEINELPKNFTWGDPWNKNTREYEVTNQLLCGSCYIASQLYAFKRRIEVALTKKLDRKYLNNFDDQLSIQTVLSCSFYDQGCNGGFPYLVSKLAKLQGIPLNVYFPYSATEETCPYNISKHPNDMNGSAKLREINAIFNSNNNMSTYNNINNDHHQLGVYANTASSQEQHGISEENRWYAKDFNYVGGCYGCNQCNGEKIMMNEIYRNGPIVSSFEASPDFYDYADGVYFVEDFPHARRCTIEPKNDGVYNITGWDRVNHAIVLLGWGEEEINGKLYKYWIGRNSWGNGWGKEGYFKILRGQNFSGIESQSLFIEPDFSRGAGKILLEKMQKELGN
For `COCCn1c(CCC(=O)NCCc2ccc(Cl)cc2)nc2cccnc21`, the “% Inhibition @ 10 uM” value turned out to be 2.57%.
For `CCc1ccc(C2c3c(-c4ccccc4O)n[nH]c3C(=O)N2CC2CCCO2)cc1` (centres unmarked), the “% Inhibition @ 10 uM” value is -1.35%.
As for `CCc1cccc(C)c1NC(=O)CN(C)S(=O)(=O)c1ccc(C)cc1`, the “% Inhibition @ 10 uM” value is recorded as -5.67%.
As for `Cc1ccc(CCNC(=O)c2nnc(Cc3ccc(C)cc3)o2)cc1`, the “% Inhibition @ 10 uM” value is reported as -2.23%.
Take `c1coc(CNc2nn3nnnc3c3ccccc23)c1`: the “% Inhibition @ 10 uM” value was -0.975%.
As to `COc1ccc(Cl)cc1NC(=O)C1C2CCC(C2)C1C(=O)O` (centres unmarked), the “% Inhibition @ 10 uM” value came out at 3.32%.
The figure for `COc1cc2c(cc1OC)C1=C(C#N)CC/C(=N\C(=O)c3ccccc3F)N1CC2` is 2.24%; for `COc1ccc(C2=N/C(=C\c3ccc(C(C)C)cc3)C(=O)O2)cc1` it is 3.58%; for `O=C(O)c1ccc(NC(=O)c2ccco2)cc1` it is -8.3%.
`O=[N+]([O-])c1ccc(N2CCN(Cc3ccccc3C(F)(F)F)CC2)cc1`: the “% Inhibition @ 10 uM” value is given as -1.92%.
The figure for `Cc1cc(O)c2c(C)c(CC(=O)NCc3ccc4c(c3)OCO4)c(=O)oc2c1` is 4.13%; for `CCOc1cc(S(=O)(=O)NCc2cccnc2)c(C)cc1C` it is 3.35%.
Regarding `O=C(CCC(=O)OCC(Cl)=C(Cl)Cl)Nc1ccc(Cl)cc1Cl`, the “% Inhibition @ 10 uM” value is reported as -1.76%.
Regarding `O=C1Nc2ccccc2C1(O)C(F)(F)F` (centres unmarked), the “% Inhibition @ 10 uM” value is 4.17%.
The figure for `CCC(=O)Nc1ccc(NC(=O)c2ccccc2)cc1C` is -3.37%; for `Oc1ccc(-c2nc3ccc4ccccc4c3c3c2CCCC3)cc1O` it is -1.97%.
Turning to `Cc1nc(C)c(NC(=O)Nc2ccc(F)cc2)cc1NC(=O)Nc1ccc(F)cc1`, the “% Inhibition @ 10 uM” value is reported as 6.61%.
Consider `COc1ccc(NC(=O)Nc2ccc(Oc3ccccc3)cc2)cc1OC`, for which the “% Inhibition @ 10 uM” value amounted to 0.161%.
Turning to `CC(=O)c1cc2c(cc1NC(=O)c1cccc(Cl)c1)OCO2`, the “% Inhibition @ 10 uM” value is on record as -1.61%.
As for `c1ccc(-c2nnc3sc(-c4csc5c4CCCC5)nn23)cc1`, the “% Inhibition @ 10 uM” value is listed as -3.64%.
In the case of `CN(CCCNS(=O)(=O)c1ccc(-c2ccc(O)nn2)s1)Cc1ccccc1`, the “% Inhibition @ 10 uM” value stood at 2.42%.
With `COc1ccccc1C(=O)N/C(=C\c1ccccc1)C(=O)NCCC(=O)O`, the “% Inhibition @ 10 uM” value came to 2.09%.
Take `COc1ccccc1C(=O)Nc1ccc2oc(-c3ccc(C(C)(C)C)cc3)nc2c1`: the “% Inhibition @ 10 uM” value was -4.02%.
Consider `Cc1ccc(-c2nc3ccccc3c(=O)n2-c2nccs2)cc1`, for which the “% Inhibition @ 10 uM” value was -4.16%.
`Cc1cc(C(F)(F)F)nn1CC(=O)N1CCCc2ccccc21`: the “% Inhibition @ 10 uM” value was found to be 0.0538%.
For `Cn1c(C(=O)NCCc2c[nH]c3ccccc23)cc2sccc21`, the “% Inhibition @ 10 uM” value is recorded as -3.08%.
`COc1cc2c(cc1OC)C(C(=O)N1CCC(C)CC1)C(c1cccnc1)N(C)C2=O` (centres unmarked): the “% Inhibition @ 10 uM” value amounted to 1.83%.
Take `COc1ccccc1C(=O)Nc1ccccc1NC(=O)c1ccccc1OC`: the “% Inhibition @ 10 uM” value worked out at 1.83%.
The figure for `C=CCn1c(CNC(=O)c2cc(OC)c(OC)c(OC)c2)nc2ccccc21` is 2.64%; for `O=C(O)CCCCCCNC(=O)c1cncc(O)c1` it is -1.15%.
In the case of `COc1ccc2c(c1)CCc1sc(NC(=O)c3ccco3)nc1-2`, the “% Inhibition @ 10 uM” value was found to be 4.84%.
In the case of `Cc1cc(NC(=O)CSCc2nc(-c3cccc(Cl)c3)oc2C)no1`, the “% Inhibition @ 10 uM” value was -5.8%.
The figure for `O=C(C(c1ccccc1)c1ccccc1)N1CCCC1` is 4.67%; for `c1ccc(-c2cc(-c3ccccc3)n3nnnc3n2)cc1` it is 1.33%.
The figure for `CCOC(=O)C1=C(N)n2c(s/c(=C/c3ccccc3)c2=O)=C(C(=O)OCC)C1c1ccccc1` (centres unmarked) is -0.053%.
Turning to `COCCCN(Cc1ccco1)C(=O)NCc1noc2ccccc12`, the “% Inhibition @ 10 uM” value is -10%.
As for `O=C(C1=C(O)C(=O)N(c2ccccn2)C1c1ccccc1F)c1ccc(Cl)cc1` (centres unmarked), the “% Inhibition @ 10 uM” value was determined as 2.82%.
As to `C=C1Cn2c(nc3sc4c(c3c2=O)CCCC4)S1`, the “% Inhibition @ 10 uM” value was 2.36%.
`CC(C)c1ccc(C2C(C(=O)c3ccccc3)=C(O)C(=O)N2CC2CCCO2)cc1` (centres unmarked): the “% Inhibition @ 10 uM” value is given as 2.49%.
Turning to `CCC(=O)NC1=NC(=O)/C(=C/c2cn(C(=O)CC)nc2-c2ccccc2)S1`, the “% Inhibition @ 10 uM” value was found to be 4.01%.
Regarding `CCCc1nc2ccc(C)cc2c(C(=O)O)c1CC`, the “% Inhibition @ 10 uM” value is -5.36%.
Take `CC1(C)CC(=O)c2c(O)cc(=O)oc2C1`: the “% Inhibition @ 10 uM” value is -5.59%.
For `Cc1ccc2oc3c(c(=O)c2c1)C(c1ccc(F)cc1)N(c1nccs1)C3=O` (centres unmarked), the “% Inhibition @ 10 uM” value is recorded as 2.1%.
On to `CCOC(=O)c1cc(-c2nnc(-c3cccc(C)c3)o2)c(C)nc1C`, for which the “% Inhibition @ 10 uM” value was determined as 5.17%.
Turning to `CCOC(=O)c1sc2ncn(CC(=O)N3CCOCC3)c(=O)c2c1C`, the “% Inhibition @ 10 uM” value was -6.69%.
The figure for `O=C(O)Cn1c(=O)c2cc3c(=O)n(CC(=O)O)c(=O)c3cc2c1=O` is -1.29%; for `COc1ccc(CNC(=O)c2sc3nc(-c4ccc(F)cc4)ccc3c2N)cc1` it is 1.86%.
In the case of `CCNC(=O)C1CCCN(S(=O)(=O)N2CCOCC2)C1` (centres unmarked), the “% Inhibition @ 10 uM” value is -2.86%.
As to `COc1ccc(C(=O)Nc2ccc(-c3nc4ccccc4o3)cc2)cc1`, the “% Inhibition @ 10 uM” value is reported as 4.98%.
The figure for `CC(=O)NCCc1ccc(S(=O)(=O)NCc2ccc3c(c2)OCO3)cc1` is -1.33%.
